“And” between values parts separate entries of the source, which are not always exact repeats. Equal values may be shown once. Screen size: about 54,000 compounds; about 120 (0.22%) were called active. This list was built around the results that the source calls inconclusive (neither active nor inactive); the mix of calls is not that of the screen. Calls follow the shape of the dose curve; as a rule, active = well fitted inhibition curve with a large enough effect; inconclusive = small, poorly fitted or top-dose-only effect, or effect the other way; inactive = flat fitted curve, though single readings scatter. A potency beside an inconclusive call is a rough fit, not a confirmed value.
Each compound was assayed against Fumarate hydratase, mitochondrial (Homo sapiens) (UniProt P07954) (assay: Identification of activators of human fumarate hydratase by quantitative high-throughput screening). Details: FH coupled MDH/diaphorase resazurin fluorescence, 15 min; series mostly up to 79.9 µM.
Sequence of UniProt P07954 (P07954 whole entry, looked up): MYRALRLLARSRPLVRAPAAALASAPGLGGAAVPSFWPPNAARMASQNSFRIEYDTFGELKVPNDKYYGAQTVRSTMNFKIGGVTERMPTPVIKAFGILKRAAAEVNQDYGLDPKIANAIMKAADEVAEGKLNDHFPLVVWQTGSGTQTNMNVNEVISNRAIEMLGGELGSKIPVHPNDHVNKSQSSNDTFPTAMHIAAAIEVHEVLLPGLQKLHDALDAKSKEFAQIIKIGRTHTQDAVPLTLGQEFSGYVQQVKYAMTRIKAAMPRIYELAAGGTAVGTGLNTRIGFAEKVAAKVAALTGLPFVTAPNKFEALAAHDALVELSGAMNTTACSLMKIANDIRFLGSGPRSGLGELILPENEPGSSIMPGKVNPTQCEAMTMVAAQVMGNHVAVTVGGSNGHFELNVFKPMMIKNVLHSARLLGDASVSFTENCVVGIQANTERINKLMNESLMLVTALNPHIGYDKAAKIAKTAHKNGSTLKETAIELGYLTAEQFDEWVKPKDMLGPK
Also: the screen sought activators but most active calls are inhibition curves; nearly all actives have a fitted effect of over 45% in size.
Potency is read from the fitted curve at half-maximal effect; tags tell the direction and shape of the fitted curve.

Row | Structure (SMILES) | Potency
1 | CCc1sc(Nc2cccc(Cl)c2)nc1-c1cc2cccc(OC)c2oc1=O | inconclusive: 17.8 µM [inhibitor, partial curve, poor fit]
2 | COc1ccc(NC(=O)CN2C(=O)C(C)(C)c3cc(S(=O)(=O)N4CCCCC4)ccc32)cc1Cl | inconclusive: 39.8 µM [inhibitor, partial curve, poor fit]
3 | CCN1CCc2c(sc(NC(=O)c3ccc(S(=O)(=O)N(C)C4CCCCC4)cc3)c2C(N)=O)C1 | inconclusive: 39.8 µM [inhibitor, single point]
4 | COc1cc(OC)cc(C(=O)Nc2ccc3nc4c(c(Nc5ccc(OC)c(OC)c5)c3c2)CCCC4)c1 | inactive
5 | CCCCc1ccc(Nc2cc(C)nc(-n3nc(C)cc3C)n2)cc1 | inconclusive: 50.1 µM [inhibitor, single point]
6 | O=C(NCC(c1cccnc1)N1CCc2ccccc2C1)C(=O)Nc1ccccc1F (stereo unspecified) | inconclusive: 56.2 µM [inhibitor, partial curve, poor fit]
7 | Cc1cccc(C)c1Nc1c(-c2ccc(N3CCOCC3)cc2)nc2ncccn12 | inconclusive: 31.6 µM [inhibitor, single point]
8 | CCOc1ccccc1NC(=O)Nc1ccc2nc(N3CCN(C)CC3)cc(C)c2c1 | inconclusive: 22.4 µM [inhibitor, partial curve, poor fit]
9 | C=CC(=O)Nc1cccc(Nc2nc(Nc3ccc(Oc4ccnc(C(=O)NC)c4)cc3)ncc2F)c1 | inconclusive: 3.55 µM [activator, single point]
10 | N[C@H]1C[C@H]1c1ccc(-c2cccc(O)c2)cc1 | inactive
11 | CCCSc1nc(N[C@@H]2C[C@H]2c2ccc(F)c(F)c2)c2nnn([C@@H]3C[C@H](OCCO)[C@@H](O)[C@H]3O)c2n1 | inconclusive: 35.5 µM [inhibitor, partial curve, poor fit]
12 | CCOC(=O)Cn1c(=O)n(-c2ccccc2OC)c2nc(-c3ccccc3)nc(C(N)=O)c21 | inconclusive: 39.8 µM [inhibitor, partial curve, poor fit]
13 | CCOC(=O)c1ccc(NC(=O)CC2Nc3cccc4cccc(c34)NC2=O)cc1 (stereo unspecified) | inconclusive: 7.08 µM [inhibitor, partial curve]
14 | Cc1cc(Br)cc(C)c1NC(=O)c1cnc2ccccn2c1=O | inactive
15 | COc1cccc(NS(=O)(=O)c2ccc3[nH]c4c(c3c2)CCCCCC4)c1 | inconclusive: 50.1 µM [inhibitor, single point]
16 | Cc1cc2cc(CCNS(=O)(=O)c3ccc(Br)cc3)c(=O)[nH]c2cc1C | inconclusive: 35.5 µM [inhibitor, partial curve]
17 | O=C(CCS(=O)(=O)c1nc(-c2cccs2)cc(C(F)(F)F)n1)Nc1ccc(Br)cc1 | inactive
18 | COc1ccc2c(c1)CCc1c(C(=O)Nc3cnn(Cc4ccc(Cl)cc4Cl)c3)noc1-2 | inconclusive: 20 µM [inhibitor, partial curve, poor fit]
19 | COc1cccc(NC(=O)CCc2nc(-c3ccc(C(C)(C)C)cc3)no2)c1 | inconclusive: 28.2 µM [inhibitor, partial curve]
20 | Cc1oc2ncn(CC(C)C)c(=O)c2c1C(=O)NCCc1ccc(Cl)cc1 | inconclusive: 25.1 µM [inhibitor, single point]
21 | C/C=C/C[C@@H](C)[C@@H](O)[C@H]1C(=O)N[C@@H](CC)C(=O)N(C)CC(=O)N(C)[C@@H](CC(C)C)C(=O)N[C@@H](C(C)C)C(=O)N(C)[C@@H](CC(C)C)C(=O)N[C@@H](C)C(=O)N[C@H](C)C(=O)N(C)[C@@H](CC(C)C)C(=O)N(C)[C@@H](CC(C)C)C(=O)N(C)[C@H](C(C)C)C(=O)N1C | inactive

Row | Structure (SMILES) | Potency
22 | Cc1ccc2c(CC(=O)Nc3cccc(C(F)(F)F)c3)coc2c1 | inconclusive: 28.2 µM [inhibitor, partial curve, poor fit]
23 | CCOC(=O)c1sc(N2C(=O)c3oc4ccccc4c(=O)c3C2c2ccc(C(C)(C)C)cc2)nc1C (stereo unspecified) | inconclusive: 35.5 µM [inhibitor, single point]
24 | CC(C)c1ccc(-c2cc(=O)c3ccccc3o2)cc1 | inactive
25 | Fc1ccc(Nc2nc(SCc3cccc(F)c3)nc3ccccc23)cc1 | inconclusive: 35.5 µM [inhibitor, partial curve]
26 | CCOc1ccc(Nc2nc(N)c(C(=O)c3ccccc3Cl)s2)cc1 | inconclusive: 35.5 µM [inhibitor, single point]
27 | CC1CCN(C(=O)CCS(=O)(=O)c2cc3c(cc2Cl)NC(=O)CO3)CC1 | inactive
28 | CC(C)Cn1cc(NC(=O)NCc2ccc(Cl)cc2)c2ccccc2c1=O | inconclusive: 31.6 µM [activator, single point]
29 | CCCc1oc2ccc(NS(=O)(=O)c3ccc(OCC)cc3)cc2c1C(=O)OCC | inconclusive: 50.1 µM [inhibitor, single point]
30 | CCOC(=O)c1ccc(NC(=O)CCCn2nc(C)c3sc4ccccc4c3c2=O)cc1 | inconclusive: 28.2 µM [inhibitor, partial curve, poor fit]
31 | COC(=O)c1ccc(NC(=O)CSc2n[nH]c(-c3ccccc3)n2)cc1 | inconclusive: 17.8 µM [inhibitor, partial curve, poor fit]
32 | CC(C)Oc1ccc(CNC(=O)CN2C(=O)CCn3nc(-c4cn(C)c5ccccc45)cc32)cc1 | inconclusive: 44.7 µM [inhibitor, single point]
33 | O=C(O)/C=C/c1ccc(O)c(O)c1 | inconclusive: 35.5 µM [inhibitor, single point]
34 | COc1ccc(/C=C/C(=O)Nc2ccc(C)cc2)cc1 | inactive
35 | CCOC(=O)c1ccc(N2C(=O)c3n[nH]c(-c4ccco4)c3C2c2ccc(OC)cc2OC)cc1 (stereo unspecified) | inconclusive: 10 µM [inhibitor, full curve]
36 | COc1cccc(-c2nc(S(=O)(=O)c3ccc(C)cc3)c(N3CCCCCC3)o2)c1 | inconclusive: 31.6 µM [inhibitor, single point]
37 | COc1ccc(NC(=O)Cn2cnc3ccc(S(=O)(=O)N4CCC(C)CC4)cc3c2=O)c(OC)c1 | inactive
38 | CCOC(=O)N1CCN(Cc2nc3cc(NC(=O)CC)ccc3n2C(C)C)CC1 | inactive
39 | Oc1ccc2ccccc2c1SSc1c(O)ccc2ccccc12 | inconclusive: 24.3 µM [inhibitor, partial curve] and inconclusive: 17.8 µM [inhibitor, partial curve, poor fit] and active: 35.5 µM
40 | CCc1ccc(NC(=O)Nc2cn(C)c(=O)c3ccccc23)cc1 | active: 31.6 µM [activator]
41 | CCc1c(C)sc2c1CCN(Cc1ccccc1)C2c1ccccc1 (stereo unspecified) | inactive
42 | O=C(CCn1cnc2onc(-c3ccc(F)cc3)c2c1=O)Nc1ccc(F)c(Cl)c1 | inactive

Row | Structure (SMILES) | Potency
43 | Cc1nc2nc(SCC(=O)N(C)Cc3ccccc3)nn2c(C)c1Cc1ccccc1Cl | inconclusive: 15.8 µM [inhibitor, partial curve, poor fit]
44 | COc1ccc(Nc2nc3ccccc3nc2NS(=O)(=O)c2ccc(C)cc2)c(OC)c1 | inactive
45 | N#CSc1cc(SC#N)c(N)nc1N | inactive
46 | CCN(CC)c1cc(C)c2cc(NC(=O)c3cccc(OC)c3OC)ccc2n1 | inactive
47 | COc1ccccc1NC(=O)Nc1ccc2ccccc2c1 | inconclusive: 50.1 µM [inhibitor, single point]
48 | O=C(Nc1ccc(Br)cc1)c1ccc(F)c(S(=O)(=O)NC2CCCCCC2)c1 | inconclusive: 25.1 µM [inhibitor, single point]
49 | CC(=O)O[C@]1(C(C)=O)CC[C@H]2[C@@H]3CCC4=CC(=O)CCC4=C3[C@@H](c3ccc(N(C)C)cc3)C[C@@]21C | inactive
50 | CCOC(=O)c1cc2c(=O)n3ccccc3nc2n(Cc2ccco2)c1=NC(=O)c1ccc(Br)cc1 | inconclusive: 22.4 µM [inhibitor, partial curve, poor fit]
51 | CCCN1C(=O)c2[nH]nc(-c3ccc(F)cc3)c2C1c1ccccn1 (stereo unspecified) | inconclusive: 50.1 µM [inhibitor, single point]
52 | COc1cccc(C2CC(=O)N3CN(C4CCCCC4)CSC3=C2C#N)c1 (stereo unspecified) | inactive
53 | CCc1ccc(-c2cc(C)no2)cc1S(=O)(=O)Nc1ccc(Cl)cc1 | inconclusive: 31.6 µM [inhibitor, partial curve, poor fit]
54 | COc1cc2nc(NCC(C)c3ccccc3)n3nc(-c4ccccc4)nc3c2cc1OC (stereo unspecified) | inconclusive: 25.1 µM [inhibitor, partial curve, poor fit]
55 | CNC(=O)c1ccc(Nc2nnc(-c3ccc(C)c(S(=O)(=O)N4CCOCC4)c3)c3ccccc23)cc1 | inconclusive: 31.6 µM [inhibitor, partial curve, poor fit]
56 | Cc1nc2nc(SCC(=O)NCc3ccccc3)nn2c(C)c1Cc1ccccc1 | inconclusive: 39.8 µM [inhibitor, partial curve]
57 | COc1ccc(-c2ccc3c(N)c(C(=O)Nc4cccc(C)c4)sc3n2)cc1 | inactive
58 | COc1ccc(NC(=O)Nc2nnc(N3CCCCCC3)s2)c(OC)c1 | inconclusive: 35.5 µM [inhibitor, single point]
59 | COc1ccc(C(=O)NCCSc2c(C)[nH]c3ccccc23)cc1 | inconclusive: 50.1 µM [inhibitor, single point]
60 | CCOC(=O)c1cnc2c(ccc3ccccc32)c1Nc1ccc(OC)c(OC)c1 | inconclusive: 25.1 µM [inhibitor, single point]
61 | CCN1CCN(c2cc(C)c3cc(NC(=O)/C=C/c4cccc(Cl)c4)ccc3n2)CC1 | inconclusive: 31.6 µM [inhibitor, single point]

From PubChem BioAssay AID1347055 (National Center for Advancing Translational Sciences (NCATS), 2019)
